Reference: publication PMC4336329 (PLoS ONE, 2015)
Hit rate of the full screen: of about 310,000 compounds, about 14,000 (4.5%) showed an effect of 50% or more. Effects have a minus sign here. The list shows a part of the results.

Each molecule was assayed against human ether-à-go-go-related gene (hERG) potassium channel (human, UniProt Q12809) (assay: primary screen, population patch clamp on CHO cells stably expressing hERG).
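Note: peak tail current of the secondary pulse compared with the same well before compound.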

Chain of human ether-à-go-go-related gene (hERG) potassium channel (Q12809 whole entry, looked up): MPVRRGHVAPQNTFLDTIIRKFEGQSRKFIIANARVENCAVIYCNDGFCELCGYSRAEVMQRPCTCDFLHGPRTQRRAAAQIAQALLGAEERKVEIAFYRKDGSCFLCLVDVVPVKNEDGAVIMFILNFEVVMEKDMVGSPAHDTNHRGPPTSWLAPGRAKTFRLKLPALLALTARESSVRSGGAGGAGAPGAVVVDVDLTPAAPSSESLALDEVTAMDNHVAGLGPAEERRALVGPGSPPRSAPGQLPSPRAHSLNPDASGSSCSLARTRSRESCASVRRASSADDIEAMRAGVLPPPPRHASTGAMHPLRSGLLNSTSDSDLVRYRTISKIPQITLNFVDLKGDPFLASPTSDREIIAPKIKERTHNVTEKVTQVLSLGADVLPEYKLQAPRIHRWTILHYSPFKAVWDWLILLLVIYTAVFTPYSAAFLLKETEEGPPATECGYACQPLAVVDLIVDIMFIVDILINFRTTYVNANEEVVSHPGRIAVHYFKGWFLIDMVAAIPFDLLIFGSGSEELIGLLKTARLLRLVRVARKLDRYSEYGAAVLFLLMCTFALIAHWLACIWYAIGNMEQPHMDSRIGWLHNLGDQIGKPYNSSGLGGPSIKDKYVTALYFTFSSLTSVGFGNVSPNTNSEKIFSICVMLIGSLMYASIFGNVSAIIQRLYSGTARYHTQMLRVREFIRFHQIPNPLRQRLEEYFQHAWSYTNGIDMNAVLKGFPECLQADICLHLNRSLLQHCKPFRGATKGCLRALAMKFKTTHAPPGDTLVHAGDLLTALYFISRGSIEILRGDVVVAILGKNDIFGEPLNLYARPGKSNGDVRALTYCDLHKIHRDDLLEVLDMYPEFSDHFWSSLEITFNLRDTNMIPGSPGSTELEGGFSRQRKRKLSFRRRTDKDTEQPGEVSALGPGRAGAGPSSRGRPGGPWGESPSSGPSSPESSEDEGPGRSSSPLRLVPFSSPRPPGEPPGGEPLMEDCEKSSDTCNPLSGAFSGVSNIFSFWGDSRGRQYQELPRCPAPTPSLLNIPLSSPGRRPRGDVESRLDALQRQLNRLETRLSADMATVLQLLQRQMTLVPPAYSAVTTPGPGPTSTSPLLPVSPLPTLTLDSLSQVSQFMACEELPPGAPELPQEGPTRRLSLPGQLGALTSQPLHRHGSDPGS

Row | Structure (SMILES) | hERG current change (%, negative = inhibition) at 10uM [%]
1 | Cl.O=C(CN1CCCC1)NCC12CC3CC(CC(C3)C1)C2 | -4.77
2 | Cc1cc(=O)n(-c2ccc(C(=O)O)cc2)[nH]1 | 20.1
3 | O=C(COC(=O)C1CCN(C(=O)c2ccc(Cl)cc2)CC1)NC1CCS(=O)(=O)C1 (stereo not drawn) | 26.9
4 | O=C(NCC1CCN(C(=O)c2cccc([N+](=O)[O-])c2)CC1)c1cccc([N+](=O)[O-])c1 | -53.5
5 | COc1ccc(C(=O)Oc2ccc(F)cc2C(=O)/C=C/c2ccc(OC)c(OC)c2)cc1 | -7.85
6 | COc1cccc(OC)c1C(=O)NCC12CC3CC(C1)CC(CNC(=O)c1c(OC)cccc1OC)(C3)C2 | 5.4
7 | Cn1c(/C(C#N)=C(\O)c2ccc([N+](=O)[O-])cc2)nc2ccccc21 | 13
8 | C/C(=N\NC(=O)c1ccc(O)cc1)c1ccc2c(c1)Nc1ccccc1S2 | -15.7
9 | COC(=O)/C(=C/N(C)C)C(=O)N1CCN(c2ccc(Cl)c(Cl)c2)CC1 | -25
10 | COc1ccc(CNS(=O)(=O)c2cc(-c3cc(C)no3)ccc2C)cc1OC | -12.2
11 | Cc1cccc(C)c1NC(=O)c1cccc2c1-c1ccccc1C2=O | 3.11
12 | COc1ccc(N2C(=O)CCC(C(=O)N3CCCCCC3)C2c2ccc(OC)c(OC)c2)cc1 (stereo not drawn) | 4.96
13 | CCSc1nnc(-c2cc(Br)ccc2N=Cc2c(C)[nH]n(-c3ccccc3)c2=O)c(=O)[nH]1 | -36.1
14 | N#Cc1ccc(C(=O)CN2CCN(c3ccccc3)CC2)cc1 | -42.8
15 | CC(=O)Nc1ccccc1O | 14.3
16 | N#C/C(=C/N1CCOCC1)c1ccccc1 | -13.6
17 | COc1cc(OC)c(OC)cc1CNCCc1ccc(F)cc1.O=C(O)C(=O)O | -11
18 | COc1cccc(CNC(=S)Nc2cc(OC)ccc2OC)c1 | 12.5
19 | Cc1ccccc1CN1CCN(C(C)C(=O)NNC(=O)c2ccc(F)cc2)CC1 (stereo not drawn) | -8.62
20 | Cc1cccc(/N=C2/NC(=O)C(Cc3ccccc3)S2)n1 (stereo not drawn) | -0.746
21 | CCN(CC)C(=O)CSc1nnc(-c2c[nH]c3ccccc23)o1 | 11.1
22 | COc1ccc(NS(=O)(=O)c2ccc(C)c(C(=O)N(C)Cc3ccc(OC)cc3OC)c2)cc1 | -39.6
23 | CCOC(=O)c1ccccc1NC(=O)c1cc2sccc2n1C | 6.08

Row | Structure (SMILES) | hERG current change (%, negative = inhibition) at 10uM [%]
24 | O=c1c2[nH]c3ccccc3c2ncn1CCN1CCCCC1 | -45.6
25 | CC(=O)Nc1ccc(N2C(=O)CSC2c2ccc([N+](=O)[O-])cc2)cc1 (stereo not drawn) | -11.3
26 | CCN(CC(=O)Nc1c(F)cccc1F)C(=O)c1cn2ccccc2n1 | 29
27 | N#C/C(=C/c1cn[nH]c1-c1cccc(Br)c1)C(=O)O | 1.8
28 | CCOCCCNC(=O)C1c2ccccc2Oc2ccccc21 | 15.4
29 | CC1CCCCC1NC(=O)Cn1cnc2ccccc2c1=O (stereo not drawn) | 3.88
30 | O=C(Cc1ccc(Br)cc1)N1CCN(c2ccc(F)cc2)CC1 | -49.9
31 | Cc1ccc(/C=N/NC(=S)Nc2cccc(S(=O)(=O)N(C)C)c2)o1 | -11.5
32 | C=CCn1ccc(O)c(Cc2ccc(Cl)cc2)c1=O | -1.67
33 | CC(O)(CS(=O)(=O)c1cccc(C(F)(F)F)c1)C(=O)Nc1ccc(C(F)(F)F)cc1 (stereo not drawn) | -13
34 | Cc1noc(C)c1S(=O)(=O)N1CCCC(C(=O)NCC2CCCO2)C1 (stereo not drawn) | 5.12
35 | COc1ccc2c(c1)SCCC2=O | 4.79
36 | O=C(CNC(=O)c1cccs1)NCCN1CCN(Cc2ccccc2)CC1 | -37.3
37 | O=C(O)C(O)(c1ccccc1)C(O)c1ccccc1 (stereo not drawn) | 9.72
38 | c1ccc(C[C@H]2CNCCN2CCCCC2CCCCC2)cc1 | -19.7
39 | Cc1nn(-c2ccccc2)c(C)c1/C=N/N1CCN(c2ccccc2)CC1 | -13.6
40 | CN1CCN(C(=O)CSc2ccc(Cl)cc2)CC1 | 6.35
41 | CCOc1ccc(NC(=O)CCNS(=O)(=O)c2ccc3c(c2)CCC(=O)N3)cc1 | -2.29
42 | N#CC1=C(N)N(c2ccccc2Sc2ccccc2)C(=O)C1 | 3.4
43 | COC(=O)C1=C(C)NC(=S)NC1c1ccco1 (stereo not drawn) | 15.9
44 | Cc1ccc(S(=O)(=O)CCSc2cccc(C(=O)Nc3ccccc3C(=O)O)c2)cc1 | -30.3
45 | CCOC(=O)/C=C/c1ccc2oc3ccccc3c(=O)c2c1 | 20.5
46 | O=C(CCCc1nc(-c2ccccc2)no1)NC1CCCCC1 | 8.31

Row | Structure (SMILES) | hERG current change (%, negative = inhibition) at 10uM [%]
47 | Cc1ccc(Cn2c(=O)c3cccnc3n(CC(=O)Nc3cccc(C(F)(F)F)c3)c2=O)cc1 | 3.19
48 | O=C(CCNS(=O)(=O)c1ccc(Br)cc1)NC1CCCCC1 | 4.82
49 | CCN(C(=O)CN1C=NS(=O)(=O)c2ccccc21)c1ccccc1 | 4
50 | CN(O)/C=C/C(=O)c1ccc(Br)cc1 | -12.9
51 | O=C(CNS(=O)(=O)c1ccc(C(=O)N2CCCCC2)cc1)N1CCCCC1 | 17.8
52 | NC(=O)c1ccccc1Br | -9.19
53 | CCN(CC)c1ccc(N2C(=O)/C(=C/c3cccnc3)SC2=S)cc1 | 12.6
54 | Cc1cccc(N/N=C(\C=N\N)C(=O)c2ccc(Br)cc2)c1 | 16.8
55 | CCCOc1ccc2[nH]c(C(=O)N/N=C/c3cc(OC)c(OC)c(OC)c3)cc2c1 | 19
56 | Cn1ccnc1SCC(=O)Nc1ccc(F)c([N+](=O)[O-])c1 | 12.6
57 | COC(=O)C1=C(C)Nc2nc(SCc3ccccc3)[nH]c(=O)c2C1c1cccs1 (stereo not drawn) | 7.28
58 | CCC(C)C(=O)Nc1nc2ccc(OC)cc2s1 (stereo not drawn) | -16.9
59 | O=C(OCC(=O)N1CCCC1=O)C1CCN(S(=O)(=O)c2c(Cl)cccc2Cl)CC1 | -36.1
60 | O=C(c1cnn(-c2ccc(Cl)cc2)c1)c1ccccc1O | -26.4
61 | COc1ccccc1-n1nc(C(=O)NCc2ccco2)c2ccccc2c1=O | 0.396
62 | Cc1cc[n+](CC(=O)Nc2cc(C(F)(F)F)ccc2Cl)cc1.[Cl-] | -2.23
63 | CCN(Cc1ccccc1)S(=O)(=O)c1cc(C(=O)O)ccc1OC | 14.1
64 | S=C(NCc1ccccc1)Nc1cccc2ccccc12 | -5.84
65 | O=[N+]([O-])c1cc(-c2nc3nc4ccccc4nc3n2CCc2ccccc2)cc([N+](=O)[O-])c1 | 3.97
66 | COC(=O)C1=C(c2cc3ccccc3s2)C[C@@H]2CC[C@H]1N2C(=O)NCCCOC(C)C | -15.4
67 | O=Cc1c(NCc2ccco2)nc2ccccn2c1=O | -6.73
68 | CC/C(=N/Nc1cccc(Cl)c1)c1cnnc(SC)n1 | 24
69 | CNS(=O)(=O)c1ccc(NCC2COc3ccccc3O2)c([N+](=O)[O-])c1 (stereo not drawn) | -26.8

Row | Structure (SMILES) | hERG current change (%, negative = inhibition) at 10uM [%]
70 | CCC(CC)C(=O)c1c[nH]c(C(=O)NCCOC)c1 | 54.4
71 | Cc1cc(C(=O)Cn2cncn2)c(C)n1CCc1ccc(F)cc1 | -19.8
72 | O=C(OCC(=O)N1CCCC1)c1ccc(O)cc1 | 8.67
73 | O=C(Nc1cccc(C(=O)N2CCOCC2)c1)c1cccnc1 | 16.8
74 | CCc1c(C(=O)N/N=C/c2cccs2)nnn1-c1nonc1N | 18
75 | CCOC(=O)Cc1csc(NC(=O)c2ccc(C)o2)n1 | 4.62
76 | CCN1CCN(S(=O)(=O)c2ccc(Cl)c(C(=O)NC3CCC(C)CC3)c2)CC1 (stereo not drawn) | -2.34
77 | CN(Cc1ccccc1)C(=O)c1cc(-c2ccc(Br)cc2)on1 | -0.817
78 | CC(Sc1nnc(-c2ccc(O)cc2)o1)C(=O)Nc1cccc2ccccc12 (stereo not drawn) | -13.1
79 | CCCn1c(SCC(=O)Nc2c(C)cccc2C)nnc1C(C)C | -1.47
80 | CC(=O)Nc1cc2c(cc1NC(=O)Cn1nc(-c3ccccc3F)ccc1=O)OCCO2 | 2.13
81 | CC(=O)Nc1cccc(-n2nnc(SCC(=O)Nc3ccc(F)c(Cl)c3)n2)c1 | 14.9
82 | O=C1c2ccccc2OCOc2ccccc21 | -8.28
83 | COc1ccccc1CNC(=O)CSC(=S)N1CCCC1 | -5.54
84 | C=CCc1cccc2cc(C(=O)NCc3ccc(C(=O)OCC)o3)c(=O)oc12 | 1.21
85 | O=C(NC1CC1)c1cc(=O)c2ccccc2o1 | -6.9
86 | CCOc1cccc(NC(=O)c2ccc(S(=O)(=O)N(C)C)cc2)c1 | -3.89
87 | Cc1cc(C)cc(NC(=O)CN2CCC(NC(=O)c3cccc(F)c3)CC2)c1 | -39
88 | Nc1ncnc2nc(SCCC(=O)O)[nH]c12 | 5.77
89 | CCCCn1c(N)c(N(CCOC)C(=O)c2cnccn2)c(=O)[nH]c1=O | 10.7
90 | Nc1c(C(=O)Nc2ccc(S(=O)(=O)N3CCCC3)cc2)sc2nc3ccc(OC(F)(F)F)cc3cc12 | 3.56
